Some of the results follow. Viral Rep nickase domains cut single-stranded DNA in vitro at 3 µM enzyme and 37 °C for 1 h; the strands have 90 letters, of which the middle is given. Uncut reads are compared with the no-enzyme pool on a log2 scale; uncut sequences lie near 0, cut ones below; no hit call is given. The scaling is to total reads; uncut strands gain when others are lost, and binding without cutting may add a little.
Key:
Assay in all cases: uncleaved DNA left, log2 of reads against the no-enzyme library (log2 ratio); higher = less cleavage (more negative = more Rep cleavage of the k-mer); sequences stand for … in CTCGTCCG…ACCGGAGA
[1] = test system: T1, Rep nickase domain of Muscovy duck circovirus
T1 sequence (protein, residues 1-111, tag omitted): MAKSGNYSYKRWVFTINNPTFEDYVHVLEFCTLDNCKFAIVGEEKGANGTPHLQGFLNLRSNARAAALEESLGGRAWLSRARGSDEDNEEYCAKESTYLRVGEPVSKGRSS
Procedure: (§1)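 A pool of 90-nt single-stranded DNAs with seven random bases just before the constant AC of the nick site (name = the seven bases) was cut by 3 µM recombinant His6-SUMO-tagged Rep nickase domain (300 nM DNA, 50 mM HEPES pH 8.0, 50 mM NaCl, 1 mM MnCl2, 1 h, 37 °C, three replicates). Uncut DNA was amplified and sequenced.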

[2] = test system: T2, Rep nickase domain of banana bunchy top virus
T2 sequence (protein, residues 1-94, tag omitted): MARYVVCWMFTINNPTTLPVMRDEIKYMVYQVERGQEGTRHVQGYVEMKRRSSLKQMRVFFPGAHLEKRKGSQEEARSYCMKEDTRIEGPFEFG
Procedure: as §1

[3] = test system: T3, Rep nickase domain of cabbage leaf curl virus
T3 sequence (protein, residues 1-116, tag omitted): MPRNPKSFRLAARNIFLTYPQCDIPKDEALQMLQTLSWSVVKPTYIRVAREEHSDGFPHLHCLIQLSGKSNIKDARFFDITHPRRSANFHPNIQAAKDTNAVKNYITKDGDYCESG
Procedure: as §1

[4] = test system: T4, Rep nickase domain of chickpea chlorotic dwarf virus
T4 sequence (protein, residues 1-124, tag omitted): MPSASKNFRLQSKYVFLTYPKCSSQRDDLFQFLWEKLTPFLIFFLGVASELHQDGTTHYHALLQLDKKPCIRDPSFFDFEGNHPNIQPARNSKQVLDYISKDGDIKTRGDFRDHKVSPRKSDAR
Procedure: as §1

[5] = test system: T5, Rep nickase domain of faba bean necrotic yellows virus
T5 sequence (protein, residues 1-98, tag omitted): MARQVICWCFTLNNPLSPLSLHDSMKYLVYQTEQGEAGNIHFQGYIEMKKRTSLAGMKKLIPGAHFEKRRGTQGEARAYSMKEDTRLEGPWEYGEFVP
Procedure: as §1

[6] = test system: T6, Rep nickase domain of maize striate mosaic virus
T6 sequence (protein, residues 1-117, tag omitted): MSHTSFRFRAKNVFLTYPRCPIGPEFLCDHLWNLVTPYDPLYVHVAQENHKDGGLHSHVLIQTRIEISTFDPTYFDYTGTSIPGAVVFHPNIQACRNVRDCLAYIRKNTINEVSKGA
Procedure: as §1

[7] = test system: T7, Rep nickase domain of porcine circovirus 2
T7 sequence (protein, residues 2-116, tag omitted): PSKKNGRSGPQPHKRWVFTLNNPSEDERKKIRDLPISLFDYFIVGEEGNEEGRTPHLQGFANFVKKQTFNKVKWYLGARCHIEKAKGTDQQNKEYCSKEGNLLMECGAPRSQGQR
Procedure: as §1

[8] = test system: T8, Rep nickase domain of tomato yellow leaf curl virus
T8 sequence (protein, residues 1-136, tag omitted): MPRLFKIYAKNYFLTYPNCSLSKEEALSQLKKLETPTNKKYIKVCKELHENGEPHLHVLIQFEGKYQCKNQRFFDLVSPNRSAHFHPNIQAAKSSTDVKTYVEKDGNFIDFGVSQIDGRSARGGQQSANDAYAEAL
Procedure: as §1

[9] = test system: T9, Rep nickase domain of wheat dwarf virus
T9 sequence (protein, residues 1-137, tag omitted): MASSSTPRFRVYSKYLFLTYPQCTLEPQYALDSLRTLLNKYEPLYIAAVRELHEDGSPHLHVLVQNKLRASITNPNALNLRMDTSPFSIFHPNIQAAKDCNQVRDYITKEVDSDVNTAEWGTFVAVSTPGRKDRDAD
Procedure: as §1

Row | Sequence | uncleaved DNA left (log2) [1] | uncleaved DNA left (log2) [2] | uncleaved DNA left (log2) [3] | uncleaved DNA left (log2) [4] | uncleaved DNA left (log2) [5] | uncleaved DNA left (log2) [6] | uncleaved DNA left (log2) [7] | uncleaved DNA left (log2) [8] | uncleaved DNA left (log2) [9]
1 | TTAACGG | 0.0882 | 0.118 | 0.552 | 1.56 | 0.0377 | 2.15 | 0.0961 | -0.0545 | 0.139
2 | GGAACGG | 0.105 | 0.163 | 0.717 | 1.76 | 0.0683 | 2.15 | 0.157 | 0.103 | 0.231
3 | ACAGGGG | 0.0344 | 0.0299 | 0.309 | 0.914 | 0.0506 | 0.326 | 0.274 | 0.0735 | 0.00205
4 | GGGCACT | 0.0748 | 0.171 | 0.909 | 2.02 | 0.042 | 2.34 | 0.244 | 0.0433 | 0.243
5 | CGAATGT | -0.0728 | -0.102 | -0.0495 | 0.514 | -0.0336 | 1.49 | -0.0645 | -0.219 | -0.000162
6 | CTGGCTA | 0.0078 | -0.0964 | -0.226 | -0.373 | -0.0518 | -0.347 | -0.119 | -0.102 | -0.0921
7 | AAGCAGC | 0.106 | -0.0139 | -0.175 | -0.44 | 0.0705 | -0.751 | 0.14 | -0.0199 | -0.0103
8 | GCGAAGC | 0.0865 | 0.0708 | 0.168 | 0.82 | 0.0437 | 0.376 | 0.108 | 2.06e-05 | 0.0366
9 | CAATGTT | -3.9 | -3.78 | -4.92 | -3.8 | -2.5 | -3.5 | -4.39 | -3.59 | -4.58
10 | AGGTTCG | 0.109 | 0.00961 | -0.678 | -0.238 | -0.0188 | -0.758 | 0.198 | 0.146 | 0.0577
11 | CGCTGCG | -0.0898 | -0.109 | -0.475 | 0.867 | 0.0366 | -0.124 | 0.0758 | -0.198 | -0.0518
12 | ACCGCAC | -0.201 | -0.249 | -0.302 | -0.442 | -0.0726 | -0.864 | -0.0954 | -0.156 | -0.12
13 | GAGAAGC | 0.0766 | 0.00875 | 0.211 | 0.611 | -0.00856 | -0.0848 | 0.166 | 0.0554 | -0.00469
14 | CTTTCAC | -0.171 | -0.135 | -0.199 | -0.706 | -0.0694 | -0.863 | -0.142 | -0.143 | -0.113
15 | CCAAGAG | -0.0494 | -0.144 | -0.51 | -0.32 | -0.0962 | -1.06 | 0.105 | 0.0157 | -0.115
16 | GCACACA | -0.0778 | 0.000982 | -0.00917 | -0.403 | -0.111 | -0.116 | -0.121 | -0.0641 | -0.041
17 | TATTAAT | -3.67 | -3.4 | -2.88 | -2.75 | -0.999 | -0.288 | -3.92 | 0.0506 | -1.05
18 | GGACCTA | -0.00171 | 0.087 | 0.741 | 1.62 | -0.00602 | 2.09 | 0.178 | 0.114 | 0.184
19 | CAGAACC | -0.0623 | -0.0633 | 0.043 | -0.351 | 0.0273 | 0.0649 | -0.322 | -0.124 | 0.0153
20 | GCTCACT | -0.0423 | -0.0236 | 0.133 | -1.08 | -0.0597 | 0.0824 | -0.351 | -0.00425 | 0.0899
21 | CCGTATA | -0.2 | -0.114 | -0.215 | -1.3 | -0.13 | -0.43 | -0.219 | -0.0264 | -0.201
22 | TCTCAAG | 0.179 | -0.0289 | -0.588 | -0.9 | 0.131 | -1.27 | 0.231 | 0.00137 | -0.177
23 | GGATTCA | 0.0624 | 0.0636 | 0.499 | 1.14 | 0.0109 | 1.8 | 0.112 | 0.132 | 0.222
24 | TTAGCAG | 0.0899 | 0.0621 | -0.503 | -0.607 | 0.0461 | -1.05 | 0.244 | 0.0466 | 0.0515
25 | CTTTTCG | -0.0733 | -0.0605 | -0.699 | 0.397 | -0.0362 | -1.24 | 0.0188 | -0.0327 | -0.121
26 | AATACAA | 0.109 | 0.179 | 0.164 | -0.785 | 0.164 | -0.417 | 0.165 | 0.169 | 0.219
27 | CCCTCCA | -0.0693 | 0.0236 | -0.033 | -0.857 | 0.0419 | -0.0702 | -0.187 | -0.122 | 0.00515
28 | TTAGGTC | 0.0437 | -0.00408 | 0.557 | 0.923 | 0.00177 | 1.39 | -0.102 | -0.0347 | 0.00458
29 | CAGTTTC | -0.279 | -0.165 | -0.126 | -0.435 | -0.326 | -0.594 | -3.19 | -0.0608 | -0.164
30 | ACTTAAC | -0.0453 | -0.00297 | -0.507 | -1.25 | -0.0867 | -0.655 | 0.213 | -0.0684 | -0.0284
